Data taken from article PMC4336329 (PLoS ONE, 2015).
The campaign covered roughly 310,000 compounds. About 14,000 (4.5%) showed an effect of 50% or more. Effects have a minus sign here. The list shows a part of the results.

Each compound was assayed against human ether-à-go-go-related gene (hERG) potassium channel (human, UniProt Q12809) (assay: primary screen, population patch clamp on CHO cells stably expressing hERG).
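Also: peak tail current of the secondary pulse compared with the same well before compound.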

Sequence of human ether-à-go-go-related gene (hERG) potassium channel (Q12809 whole entry, looked up): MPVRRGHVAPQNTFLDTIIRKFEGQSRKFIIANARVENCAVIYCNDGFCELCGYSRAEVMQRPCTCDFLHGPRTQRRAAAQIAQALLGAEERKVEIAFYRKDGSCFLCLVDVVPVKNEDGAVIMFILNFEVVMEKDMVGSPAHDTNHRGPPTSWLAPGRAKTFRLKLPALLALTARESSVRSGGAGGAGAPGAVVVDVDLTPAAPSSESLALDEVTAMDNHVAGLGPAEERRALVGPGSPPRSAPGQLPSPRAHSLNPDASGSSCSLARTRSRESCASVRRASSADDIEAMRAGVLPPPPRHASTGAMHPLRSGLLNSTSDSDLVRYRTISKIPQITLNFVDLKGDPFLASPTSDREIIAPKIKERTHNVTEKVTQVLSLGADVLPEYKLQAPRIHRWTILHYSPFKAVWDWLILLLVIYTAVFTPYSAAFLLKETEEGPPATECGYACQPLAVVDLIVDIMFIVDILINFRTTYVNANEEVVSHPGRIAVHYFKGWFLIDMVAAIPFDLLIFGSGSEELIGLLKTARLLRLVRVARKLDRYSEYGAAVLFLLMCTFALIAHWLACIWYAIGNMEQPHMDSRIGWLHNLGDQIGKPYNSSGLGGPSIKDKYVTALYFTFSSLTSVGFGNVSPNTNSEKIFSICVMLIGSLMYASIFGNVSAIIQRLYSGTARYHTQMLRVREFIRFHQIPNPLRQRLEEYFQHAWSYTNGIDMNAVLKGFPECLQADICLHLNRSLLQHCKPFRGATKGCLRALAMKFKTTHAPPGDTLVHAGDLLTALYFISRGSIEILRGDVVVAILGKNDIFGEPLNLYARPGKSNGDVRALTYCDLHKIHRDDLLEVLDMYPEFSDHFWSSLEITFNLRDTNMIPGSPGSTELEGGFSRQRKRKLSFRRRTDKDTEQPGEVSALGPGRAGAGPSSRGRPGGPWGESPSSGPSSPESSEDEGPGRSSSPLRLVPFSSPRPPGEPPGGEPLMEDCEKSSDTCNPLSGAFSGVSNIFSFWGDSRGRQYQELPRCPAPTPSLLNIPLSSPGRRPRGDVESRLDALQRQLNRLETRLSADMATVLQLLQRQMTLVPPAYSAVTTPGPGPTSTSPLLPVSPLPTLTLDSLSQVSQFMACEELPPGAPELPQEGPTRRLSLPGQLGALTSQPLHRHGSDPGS

Compared with `COc1ccccc1N1CCN(CC(=O)c2ccc3ccn(C(C)=O)c3c2)CC1`, `COc1ccccc1N1CCN(Cc2nc(N)nc(Nc3ccccc3)n2)CC1` is lower in “hERG current change (%, negative = inhibition) at 10uM” value: -4.21% for the first, -69.6% for the second.

Going from `CCOC(=O)c1c(C)[nH]c(C(=O)OCC(=O)Nc2cc(Cl)ccc2OC)c1C` to `COc1ccc(OC)c(NC(=O)Nc2ccccc2C)c1`, the “hERG current change (%, negative = inhibition) at 10uM” value rises from -30.3% to 8.74%.

First: CCOc1ccc(NC(=O)c2cccc(OC(=S)N3CCOCC3)c2)cc1
Second: CCOc1ccc(N=Nc2cc(C(C)C)ccc2O)cc1
The “hERG current change (%, negative = inhibition) at 10uM” value of the first is lower: 0.648% for the first, 14.7% for the second.

First: O=C(O)c1ccccc1C(=O)Nc1ccc(-n2ccc(C(F)(F)F)n2)cc1
Second: O=C(O)c1ccccc1C(=O)NCc1ccccc1
The “hERG current change (%, negative = inhibition) at 10uM” value of the first is higher: 17.4% for the first, -3.04% for the second.

First: Cc1ccc(NC(=S)NC(=O)c2c(-c3ccccc3Cl)noc2C)cc1
Second: CC(C)OC(=O)c1ccc(NC(=O)Cn2c(-c3nonc3N)nc3ccccc32)cc1
The “hERG current change (%, negative = inhibition) at 10uM” value of the first is lower: -5.95% for the first, 18.4% for the second.

Going from `C=CCOc1ccc(C2C3=C(CCCC3=O)N(CC(=O)O)C3=C2C(=O)CCC3)cc1OCC` to `Cc1ccc(Cl)cc1NC(=O)CCN1C(=O)C2C3CCC(C3)C2C1=O` (stereo not drawn), the “hERG current change (%, negative = inhibition) at 10uM” value rises from 3.63% to 4.42%.

Compared with `CN(CCc1cnn(C)c1)C(=O)C1CCC(=O)N(CC2CCCCC2)C1` (stereo not drawn), `O=C(c1ccc(Cl)c(S(=O)(=O)N2CCCC2)c1)N1CCCC(C(F)(F)F)C1` (stereo not drawn) is lower in “hERG current change (%, negative = inhibition) at 10uM” value: 19.4% for the first, -18.1% for the second.

Compared with `COC(=O)[C@H]1C[C@H]1[C@@H](NC(=O)c1cccnc1)c1ccccc1`, `CC(C)C(NC(=O)c1ccccc1Br)c1ccccc1` (stereo not drawn) is higher in “hERG current change (%, negative = inhibition) at 10uM” value: 5.42% for the first, 11.2% for the second.

Going from `COc1cc(/C=N/NC(=O)C(=O)NCC2CCCO2)ccc1O` (stereo not drawn) to `O=C(CN(C(=O)Cn1nnc(-c2ccccc2F)n1)c1cnc2ccccc2c1)NCC1CCCO1` (stereo not drawn), the “hERG current change (%, negative = inhibition) at 10uM” value falls from 16.4% to -26.1%.

Compared with `OC(C#Cc1ccccn1)c1cccs1` (stereo not drawn), `COCCSc1ccccc1C(=O)Nc1cc(C)ccn1` is higher in “hERG current change (%, negative = inhibition) at 10uM” value: 3.9% for the first, 6% for the second.

Going from `COc1ccc(C2C(C#N)=C(N)Oc3n[nH]c(-c4ccccn4)c32)c(OC)c1OC` (stereo not drawn) to `CCCC1C(C#N)=C(N)Oc2n[nH]c(C(C)(C)C)c21` (stereo not drawn), the “hERG current change (%, negative = inhibition) at 10uM” value falls from 11% to -3.31%.

Compared with `CCN1CCN(C(=O)c2cccc(OC3CCN(S(=O)(=O)N(C)C)CC3)c2)CC1`, `COc1ccc(Cl)cc1S(=O)(=O)N1CCN(C)CC1` is lower in “hERG current change (%, negative = inhibition) at 10uM” value: 24.3% for the first, 12.5% for the second.

Going from `Fc1ccccc1COc1ccc(/C=N/n2cnnc2)cc1` to `CCN(CC)c1ccc(/C=N/NC(=O)c2c[nH]c3ccccc23)cc1`, the “hERG current change (%, negative = inhibition) at 10uM” value falls from -12.2% to -29.6%.

Going from `CC(=O)N/C(=C\c1ccccc1)C(=O)OCC(=O)NC(C)C12CC3CC(CC(C3)C1)C2` (stereo not drawn) to `C/C(CCC12CC3CC(CC(C3)C1)C2)=N\NC(N)=S`, the “hERG current change (%, negative = inhibition) at 10uM” value rises from -1.62% to 14.4%.

Compared with `COc1ccc(-c2cc(CNC(=O)CCl)on2)cc1`, `COc1cccc(C(=O)NCc2ccco2)c1OC` is higher in “hERG current change (%, negative = inhibition) at 10uM” value: 5.06% for the first, 11.5% for the second.

Compared with `CCCCNS(=O)(=O)c1ccc2nc(SCC(=O)Nc3sccc3C#N)[nH]c2c1`, `Cc1ccc([N+](=O)[O-])cc1S(=O)(=O)NCCc1cn2ccccc2n1` is higher in “hERG current change (%, negative = inhibition) at 10uM” value: -13.3% for the first, -2.95% for the second.

Going from `O=C(COc1ccc(Cl)cc1Cl)N/N=C/c1ccc[nH]1` to `S=c1[nH]nc(-c2ccc(Cl)cc2Cl)n1Cc1ccccc1`, the “hERG current change (%, negative = inhibition) at 10uM” value rises from -37.2% to 1.82%.

Going from `N#CC[n+]1cc(-c2ccc(Cl)cc2)n2c1CCC2.[Cl-]` to `O=C1N=C(N2CCOCC2)S/C1=C/c1ccc(-c2ccccc2Cl)o1`, the “hERG current change (%, negative = inhibition) at 10uM” value falls from 5.21% to 3.9%.

First: Cc1ccc(C(=O)NCCc2csc(C)n2)cc1
Second: Cc1ccnc(NC(=O)c2cccc([N+](=O)[O-])c2C)c1
The “hERG current change (%, negative = inhibition) at 10uM” value of the first is lower: -2.69% for the first, 18.9% for the second.

Going from `O=C(NC(=S)NC1CCSC1=O)c1ccccc1Cl` (stereo not drawn) to `Cc1ccccc1C(=O)NCCN1CCOCC1.Cl`, the “hERG current change (%, negative = inhibition) at 10uM” value falls from 12.5% to 6.78%.

First: CC(C)(C)c1ccc(S(=O)(=O)N(CCCN2CCOCC2)Cc2cccs2)cc1.O=C(O)C(=O)O
Second: CCN(CC)CCn1c(NS(=O)(=O)c2ccc(C)cc2)nc2ccccc21
The “hERG current change (%, negative = inhibition) at 10uM” value of the first is higher: -33.4% for the first, -51% for the second.

First: Cc1c(C#N)c2ncn(CC#N)c(=O)c2n1-c1ccccc1
Second: COc1ccc(C(=O)c2nc3ccccc3n2C(C)C)cc1
The “hERG current change (%, negative = inhibition) at 10uM” value of the first is lower: -7.34% for the first, -0.93% for the second.

With `Cl.Cn1cccc1CNCc1ccc(F)cc1` the “hERG current change (%, negative = inhibition) at 10uM” value was 1.8%.
